# The list shows a part of the results. The full chains were built here from the parent and the listed change. Values near 0.05 are background.
# B1: TEV protease; numbered along this chain (parent)
# chain: MGESLFKGPRDYNPISSSICHLTNESDGHTTSLYGIGFGPFIITNKHLFRRNNGTLVVQSLHGVFKVKDTTTLQQHLVDGRDMIIIRMPKDFPPFPQKLKFREPQREERICLVTTNFQTKSMSSMVSDTSCTFPSGDGIFWKHWIQTKDGQCGSPLVSTRDGFIVGIHSASNFTNTNNYFTSVPKNFMELLTNQEAQQWVSGWRLNADSVLWGGHKVFMVKPEEPFQPVKEATQL
# Variants of: B1
# Experiment: raw area under fraction-flipped curve 0-4 h after induction (AUC4h, not background-subtracted), DNA-recorder readout of cleavage of the substrate (dimensionless); higher = more cleavage of the substrate by the protease variant
# Details: temperature: 34 °C; time window: 0-4 h after rhamnose induction
# Protocol: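 In vivo DNA recorder in E. coli TOP10(DE3) ΔrhaA at 34 °C. Each TEVp single-site mutant (parent TEVp 0) is paired with a single-site variant of the 7-mer TEVs (canonical ENLYFQ|S). The substrate sits between flexible linkers in a Bxb1-sfGFP-TEVs-SsrA fusion, so cleavage stabilises Bxb1 and speeds flipping of a recombination array, read by NGS. The value is the raw area under the fraction-flipped curve over 0-4 h after rhamnose induction (AUC4h), with ≥20 reads per time point. It is not background-subtracted; inactive controls average about 0.047.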
# 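Also: Bxb1 expression induced with 0.2% (w/v) L-rhamnose at OD600 near 0.5, cultures sampled hourly, flipped fraction per protease–substrate barcode pair counted by paired-end Illumina sequencing.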
Variant,area with substrate ANLYFQS,area with substrate CNLYFQS,area with substrate HNLYFQS,area with substrate INLYFQS,area with substrate LNLYFQS,area with substrate QNLYFQS,area with substrate TNLYFQS,area with substrate WNLYFQS,area with substrate YNLYFQS,area with substrate DNLYFQS,area with substrate GNLYFQS,area with substrate MNLYFQS,area with substrate NNLYFQS,area with substrate PNLYFQS,area with substrate SNLYFQS,area with substrate FNLYFQS,area with substrate KNLYFQS,area with substrate RNLYFQS,area with substrate VNLYFQS
Q74F,0.0639,0.0773,0.0033,0.0629,0.0659,0.0857,0.0544,0.0569,0.061,,,,,,,,,,
Q74W,0.062,0.082,0.0581,,0.0684,,0.0667,0.0576,0.0617,0.0284,0.0499,0.0602,0.0592,0.0636,0.0648,,,,
Q74E,0.0605,0.0381,0.0569,,,,,0.0401,0.0519,,0.0782,0.066,,0.0801,,0.0667,,,
T114Q,0.0591,,0.0649,0.0567,0.0767,,,0.0587,0.066,0.0815,0.0976,0.0688,,0.0669,0.0765,0.069,0.0648,0.0672,0.0684
T114V,0.0688,,0.0603,0.0804,0.0997,0.0673,0.0652,,0.086,0.0618,,0.0588,,0.0753,0.0696,,0.0683,0.0659,
T114P,0.0821,0.0573,,,,,0.0296,0.045,0.0634,,,0.0565,,0.057,,,0.0689,0.057,
D79I,0.0177,,0.0684,,,,,,0.0513,0.0878,0.0596,,,0.0682,,,,,
R102D,0.0088,0.0475,0.0405,0.0493,0.0423,,0.0381,0.049,0.0521,,,,,,,,0.0454,,0.0584
R102Q,0.0402,,0.0514,,,,0.0317,0.0498,0.023,0.0448,0.0375,,0.0509,,0.0495,0.0408,,,
R102W,0.0444,0.0432,0.0492,,0.0252,0.0394,0.0533,0.046,,,0.0551,,0.0483,,0.0529,,0.0525,,
L77V,0.0578,0.0672,0.0646,0.0993,0.0667,,0.0603,0.0658,0.0648,,0.0513,,0.0587,0.0676,,0.0616,,,
L77D,0.0612,0.0607,0.0549,0.0719,0.0681,,0.059,0.0548,0.0881,,0.0596,,0.099,0.0531,,0.0633,0.0607,0.0816,0.051
G80R,0.0601,,,,,,0.0779,0.0716,0.0592,0.0891,,,0.0588,,,,,,
I85M,0.0978,,,,,0.0755,,0.052,0.0519,0.0654,0.0676,0.0722,0.0664,0.0616,0.0731,0.0283,,,
I85V,0.0709,0.066,0.0602,0.0858,0.0617,,,0.0504,0.064,,0.0786,,0.0723,0.0599,0.0781,0.0563,0.0685,0.0659,0.0513
I85D,0.0409,0.0678,,0.0386,,,0.0525,0.0401,,,0.0564,0.0576,,0.0444,0.0438,,,0.0229,

# Source: the supplement of paper PMC12217912
